# Source: the supplement of paper PMC3334620
# In all, about 33,000 sequences were measured (“E-score (-0.5 to 0.5)”: median about -0.035, highest 2% from about 0.35 on). Some of the results follow.
# Target: T1, Pdr3 (UniProt P33200)
# T1 sequence: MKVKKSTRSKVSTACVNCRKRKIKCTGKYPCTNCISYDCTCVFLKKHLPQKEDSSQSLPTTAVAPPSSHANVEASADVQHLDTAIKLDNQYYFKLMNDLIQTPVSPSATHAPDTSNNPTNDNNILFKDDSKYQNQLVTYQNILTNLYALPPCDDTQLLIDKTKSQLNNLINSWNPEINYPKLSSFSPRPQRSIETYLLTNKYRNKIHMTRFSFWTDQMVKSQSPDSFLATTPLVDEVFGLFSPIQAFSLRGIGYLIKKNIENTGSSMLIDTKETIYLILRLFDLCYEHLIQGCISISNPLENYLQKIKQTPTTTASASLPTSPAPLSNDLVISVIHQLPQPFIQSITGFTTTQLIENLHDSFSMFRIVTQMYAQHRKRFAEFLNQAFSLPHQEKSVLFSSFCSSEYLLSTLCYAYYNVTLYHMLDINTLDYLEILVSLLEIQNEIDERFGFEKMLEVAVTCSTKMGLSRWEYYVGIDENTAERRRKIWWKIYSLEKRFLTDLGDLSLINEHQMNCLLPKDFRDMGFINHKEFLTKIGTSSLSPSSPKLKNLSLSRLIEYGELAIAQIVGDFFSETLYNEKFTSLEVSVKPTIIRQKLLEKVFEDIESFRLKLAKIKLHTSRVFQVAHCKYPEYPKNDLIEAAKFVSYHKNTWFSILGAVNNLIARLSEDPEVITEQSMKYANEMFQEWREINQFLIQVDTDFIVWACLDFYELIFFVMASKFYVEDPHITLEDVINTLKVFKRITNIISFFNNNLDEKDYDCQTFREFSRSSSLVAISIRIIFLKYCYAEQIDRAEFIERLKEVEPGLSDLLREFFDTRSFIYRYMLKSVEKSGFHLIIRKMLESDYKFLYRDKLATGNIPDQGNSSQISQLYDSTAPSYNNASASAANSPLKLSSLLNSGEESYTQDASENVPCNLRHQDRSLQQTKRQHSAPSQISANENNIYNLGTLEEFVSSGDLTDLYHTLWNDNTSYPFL
# Assay: PBM E-score (8-mer binding enrichment) (E-score (-0.5 to 0.5)); higher = stronger / more preferred TF binding; most listed sequences are background and not binding sites
# Settings: protein concentration: 200 nM; construct: GST-full length
# In short: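 For each ungapped eight-base word taken together with its reverse complement, the Universal PBM Analysis Suite assigned an E-score. Binding data came from GST-tagged yeast transcription factors, applied at about 100-200 nM, on universal all-10-mer Agilent arrays made double-stranded by primer extension. Fluorescent anti-GST marked bound protein, and scans were normalised with masliner.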
row,Sequence,PBM E-score
1,CGTACTAC,0.0384
2,GAAACTTA,0.115
3,CGTAGAAA,-0.105
4,AGTTTTTA,-0.308
5,AGGAAGCA,-0.16
6,AGATTCAT,-0.0927
7,CAGTCGCC,-0.142
8,TGAACCCA,-0.0442
9,ACAGCCAC,0.106
10,CACCCTGG,-0.197
11,CCTCATGC,-0.177
12,AGGGCACT,-0.224
13,ATCTCTTG,-0.289
14,CTCCCATA,-0.31
15,GCTACGCC,-0.223
16,GAGGGAAA,-0.163
17,ATTGCAGA,-0.066
18,CCGTAACC,0.211
19,AGAGGAGC,-0.211
20,CCGCGAAC,0.228
21,AACAGTTA,0.0467
22,ACGCGCCG,0.229
23,AATCCATG,0.0174
24,AAATTCAT,-0.0189
25,ATCGTCCG,0.339

row,Sequence,PBM E-score
1,ACTTCATG,-0.0932
2,CACCCGTA,0.151
3,ATACCCCC,0.00568
4,CGGGAAAC,0.309
5,AGGCTCAG,-0.266
6,CCTAGGTA,-0.174
7,GGCGGAAA,0.361
8,CCCAGACG,-0.133
9,ACTCTGAG,-0.239
10,CGGTCGTC,-0.0408
11,ACCATGGT,-0.282
12,CCCCTTTA,-0.319
13,CCCCCACC,-0.24
14,ATACTCTC,-0.0285
15,CACGGGAA,0.223
16,GAGAACCA,-0.0398
17,AAGAGAAG,-0.158
18,AGCGTTGC,0.0508
19,AGTCAGAG,-0.0475
20,TAATCGCA,-0.092
21,CAACGGCG,0.176
22,AGTGTTGC,-0.0478
23,GGAGTCCA,0.00397
24,TAATTAAA,-0.00203
25,ATCATTGG,-0.173

row,Sequence,PBM E-score
1,CATCCCTC,0.0487
2,TAAATGCA,0.00746
3,TGAACGAA,-0.195
4,CAAGTGAA,-0.0585
5,ATACACCC,0.138
6,ACTCCGCC,0.343
7,ACTCACCC,0.205
8,TAGAACGA,-0.204
9,AATATGTA,-0.019
10,AGGTTCGC,-0.0471
11,ACGACAGG,-0.0216
12,GCTCAGGA,-0.191
13,AAAGTGTT,0.0165
14,ACGAAGTA,-0.136
15,CGTTTTAG,-0.195
16,GGACCACA,0.157
17,AGGTTCCA,-0.018
18,AATGCGGT,0.116
19,CCTCCAGA,0.00494
20,AGGCAGAT,-0.0983
21,ACTCGGGG,0.0393
22,GGACTGTA,-0.07
23,CGGCAAAC,0.285
24,ACATCGCT,-0.144
25,CGGGGTGA,0.214

row,Sequence,PBM E-score
1,AGCGAGGC,-0.0299
2,AAGCGTAC,-0.244
3,ATAGGATG,-0.0644
4,AATCTATA,-0.0326
5,GCGAGTTA,-0.0865
6,CAGCTTCG,-0.0885
7,GACTTCGA,-0.315
8,CGCAACCG,0.231
9,GATTTAGA,0.0216
10,CACGTACA,-0.202
11,AGTCCGCC,0.324
12,ATAGTAAG,-0.218
13,AAAACCTC,0.159
14,CGCCCTGC,0.137
15,GAGGGAGA,-0.2
16,ATTAAGCA,-0.112
17,CAGTGCTC,-0.213
18,TCGGTGAA,0.0249
19,AAGCTTAC,-0.251
20,TAACATGA,-0.188
21,AGCCTACG,-0.0473
22,CATTGGAC,-0.0109
23,CGTAAATC,0.0612
24,CGAGGTTA,0.113
25,CCTTTTTA,-0.199

row,Sequence,PBM E-score
1,TGAGGCCA,-0.0241
2,ACTGTGCA,-0.172
3,CCTGGTGC,-0.0048
4,GCGGAGGA,0.176
5,AAACGGAA,0.469
6,ACGCGTGG,0.127
7,CCAGACGC,-0.232
8,CAACTAAC,0.126
9,CCTATGGA,-0.127
10,ATGTGTAC,-0.128
11,AGCACTAC,-0.222
12,ATGAGCTG,-0.0649
13,ACCCTGCG,0.0171
14,AAGTGCCT,-0.279
15,CAACCGGC,0.232
16,ATTAGCTA,-0.00451
17,ATTCGCCC,0.043
18,ATAGCGCC,0.0818
19,CAAGCAGA,-0.0291
20,AACCTAAC,0.0498
21,AAGGTGGG,-0.203
22,TGCCCAAA,-0.0904
23,CCAGATAA,0.00642
24,GGCATTTA,-0.0223
25,ATACCCTG,-0.076

row,Sequence,PBM E-score
1,AGAATAAG,-0.0601
2,CCTGTAGA,-0.022
3,GCCATCTA,-0.118
4,AGATCAAA,-0.112
5,CTAAGCCA,-0.265
6,CTGAGTAA,-0.175
7,ATAATAAC,0.0962
8,ACTCCACG,0.00846
9,AAATGAAG,0.0448
10,AACGCGCA,-0.0898
11,ACTGCTGA,-0.261
12,ACAAACCA,-0.138
13,AGTTGGAC,-0.109
14,CTCCTTGA,-0.203
15,ACCAAGCT,-0.157
16,CATGTTGG,-0.273
17,GGCAATCA,0.017
18,CACCAGGG,-0.192
19,ACGAGTAT,-0.0786
20,AGTCCCAG,-0.108
21,AAAAAATT,-0.00567
22,CCGTTAAC,0.221
23,GGGCCGCA,0.126
24,GACTGGGC,-0.214
25,GAATACTC,-0.0365

row,Sequence,PBM E-score
1,ATACGAGA,-0.289
2,ACGTGGGG,-0.0273
3,CGATCTGC,0.137
4,GCGAGGTA,-0.104
5,GTCGATGA,0.0203
6,CCGAGGCC,0.227
7,CAACTGTC,-0.0666
8,ATACTTCC,0.219
9,CCTCTAGA,-0.199
10,ATACTTGC,-0.102
11,GCGAGTAC,-0.0233
12,AGTCAGCA,-0.256
13,ACAGGGGA,-0.216
14,CCTTGTCC,0.118
15,TACGTGGA,-0.0157
16,CGTTGAAG,-0.129
17,CTCTGCTC,-0.0646
18,AGCTTAAT,0.146
19,GATCTGTA,0.00649
20,AGGTCATG,-0.18
21,GTATCTGA,-0.146
22,CCGTGACA,0.244
